Source: a collection of fitness landscapes (doi:10.1016/j.celrep.2020.107928)
Over roughly 81,000 sequences, “one-hybrid fitness for binding parS DNA” has its median near -0.17; the highest 2% begin near 0.51. The list shows a part of the results.

B1: Caulobacter ParB omega fusion; a variant is named by its letters at X, in order, B8GW30 (parent)
chain: MESVVVGEPGMSEGRRGLGRGLSALLGEVDAAPAQAPGEQLGGSREAPIEILQRNPDQPRRTFREEDLEDLSNSIREKGVLQPILVRPSPDTAGEYQIVAGERAWRAAQRAGLKTVPIMVRELDDLAVLEIGIIENVQRADLNVLEEALSYKVLMEKFERTQENIAQTIGKSXSHVANXMRLLXLPDEVQSYLVSGELTAXHARAIAAAADPVALAKQIIEGGLSVRETEALARKAPNLSAGKSKGGRPPRVKDTDTQALESDLSSVLGLDVSIDHRGSTGTLTITYATLEQLDDLCNRLTRGI

Variants of: B1
Experiment: one-hybrid fitness for binding parS DNA (scaled: cognate 1, non-cognate 0); higher = stronger binding
Conditions: with parS DNA site
In short: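 Selection: bacterial one-hybrid in E. coli USO, HIS3 reporter with the site 19 bp from the promoter, 48 hours at 37°C on M9-minus-histidine plus 0.1 mM IPTG and 5 mM 3-AT. Libraries were Caulobacter ParB with four randomised specificity codons, sequenced on Illumina before and after selection. Fitness is the rescaled log change in variant-to-wild-type read ratio, anchored to the cognate and non-cognate sites.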

one-hybrid fitness for binding parS DNA, 0.907:
RANT

one-hybrid fitness for binding parS DNA, 0.793:
RYIG

one-hybrid fitness for binding parS DNA, ≤ 0.2:
WSKC
EDIR
GRKA
WTCC
TQSA
KSKS
ATSP
MCTF
QMAT
DHLR
WMCS
PHQT
NEGL
DDTG
LHLG
EMDR
MVDT
PMNI
FGHL
FWRS
SPVF
WNKS
VLMR
EKDS
WLVT
SNFS
GMYM
AKKL
FSLK
TPRR
NTTE
PGCV
CIYR
FPKR
FHTA
RWSI
EGPG
HIHR
QGTV
RYAK
CSFP
SVPH
SWPC
HLIC
RFTK
RGNW
SWVK
TNVV
FEMR
PRKN
RSSE
CNQS
RQDQ
GEIS
QSLH
PQII
CIFG
HYTQ
RQHL
CSIT
LCGS
KLDI
SARV
RPFD
LPFS
VILE
TAWW
SNIS
QARH
QNFR
PAAT
GDTH
TMNP
SNYQ
YANR
APMR
PKDS
TLLV
MQAS
QFSD
AVLE
EYIL
CTTT
YMQG
AKQM
QYEK
PTRH
DISG
LCEF
QYGR
VGRT
NQYR
QYKW
IEKS
TFHF
YAWG
HPYR
KLTW
LGLD
QCKD
HTDN
QTPK
WTQV
ATYR
HANG
GVLA
QVHM
FNNM
EVLR
SMMG
TTGA
YRNA
DYFR
LENF
PKEE
PKHR
VNVA
NCVS
PNSV
KSVF
EDAK
LQSG
ILPF
DSHE
PFLG
YWRT
VIKV
PETY
TPHS
MDNA
PKGL
DTRC
PTFN
QIST
AKCH
VVRF
RLEK
QTYE
MVAT
KSQF
MSLS
CFNR
WMSS
EPEL
CVGT

one-hybrid fitness for binding parS DNA, 0.243:
RTHW

one-hybrid fitness for binding parS DNA, 0.205:
RNMM

one-hybrid fitness for binding parS DNA, 0.212:
RCSF

one-hybrid fitness for binding parS DNA, 0.478:
RAAY

one-hybrid fitness for binding parS DNA, 1.02:
RMDS

one-hybrid fitness for binding parS DNA, 0.402:
RAEY
